In PubChem BioAssay AID1240 (Sanford-Burnham Center for Chemical Genomics, 2008):
Hit rate of the full screen: of about 50,000 compounds, about 800 (1.6%) showed an effect of 50% or more. This is one part of the list.

The compounds below were run against Bcl-2-like protein 10 (Homo sapiens) (UniProt Q9HD36) (assay: Phenotype converters, Bcl-B/TR3 peptide binding displacement, primary biochemical FP (AID 1240;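 further: 0% = Bcl-B with tracer peptide and DMSO and 100% = tracer peptide lacking Bcl-B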)). Details: GST-Bcl-B / FITC-TR3 peptide fluorescence polarization; stronger effect = higher value; compound at 3.75 mg/L.
UniProt Q9HD36, sequence (Q9HD36 whole entry, looked up): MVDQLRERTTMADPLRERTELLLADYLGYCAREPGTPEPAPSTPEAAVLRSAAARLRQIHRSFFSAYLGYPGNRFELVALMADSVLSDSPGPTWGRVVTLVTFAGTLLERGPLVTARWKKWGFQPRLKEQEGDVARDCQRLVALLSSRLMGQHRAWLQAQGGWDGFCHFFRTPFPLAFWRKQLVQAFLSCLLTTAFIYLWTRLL

| Structure (SMILES) | displacement |
| --- | --- |
| COc1ccc(C(=O)N2CCN(C(=O)c3ccco3)CC2)cc1OC | -13.5% |
| COc1cc(/C=c2\sc3nc4ccccc4n3c2=O)cc(Cl)c1OCc1ccccc1Cl | 2.3% |
| Cc1ccc(NC(=O)c2c(N)sc3c2CCC3)c(C)c1 | -16.9% |
| COc1ccc(C2Nc3ccccc3C(=O)N2Cc2ccccc2)cc1Cn1cc([N+](=O)[O-])cn1 (stereo not given) | 13.2% |
| CC1=C(C(=O)OCC2CCCO2)C(c2cccc(O)c2)NC(=O)N1 (stereo not given) | 9.3% |
| Cc1cc(/C=N/NC(N)=O)c(C)n1-c1ccc(N(C)C)cc1 | 33.9% |
| COc1ccccc1NC(=O)C(Cc1ccccc1)NS(=O)(=O)c1ccc(C)cc1 (stereo not given) | 2.8% |
| O=Cc1ccc(OC(=O)c2ccccc2I)cc1 | 6.7% |
| COc1cc([N+](=O)[O-])ccc1NC(=O)COc1cccc(C)c1 | -8.5% |
| O=C(Nc1ccccc1C(=O)N1CCCC1)c1cccc(F)c1 | -13.6% |
| CCc1cccc(NC(=O)C2CC=CCC2C(=O)O)c1 (stereo not given) | -6.5% |
| COc1ccc(/C=C/C(=O)NCCCN2CCOCC2)cc1 | 13.1% |
| CC(=O)Nc1ccc(S(=O)(=O)Nc2cc(C)cc(C)c2)cc1 | 11.2% |
| O=C(Nc1ccc(F)cc1F)c1nn2c(c1Cl)NC(c1cccs1)CC2C(F)(F)F (stereo not given) | 0.7% |
| O=C(/C=C(\O)c1cccc([N+](=O)[O-])c1)C(F)(F)F | 2.8% |
| O=C(Nc1ccc(Br)c(Cl)c1)c1ccco1 | 12.6% |
| CCOC(=O)c1ccc(-n2sc3c(c2=S)-c2ccccc2NC3(C)C)cc1 | 8.2% |
| CCOc1cc(C2C(C(=O)OC(C)C)=C(C)NC3=C2C(=O)CCC3)cc([N+](=O)[O-])c1O (stereo not given) | -0.2% |
| N#Cc1ccccc1N=C1C(=O)Nc2ccccc21 | 14.4% |
| COC(=O)c1ccccc1-c1ccc(/C=C2/SC(=S)N(c3ccccc3)C2=O)o1 | 70% |
| Cc1ccc2c(Cl)c(C(=O)N3CCN(C)CC3)sc2c1 | -12.7% |
| COc1ccccc1OCCOCCOc1ccccc1OC | 12.1% |
| CC(=O)N(OCON(C(C)=O)C(C)=O)C(C)=O | -11.5% |
| CCOC(=O)c1ccccc1NS(=O)(=O)c1ccc(OC)c(OC)c1 | 8% |
| O=[N+]([O-])c1ccc(C(O)C23CN4CN(CN(C4)C2)C3)cc1 (stereo not given) | 1.2% |
| COc1ccc(Oc2c(C(F)(F)F)oc3c(CN(C)C)c(O)ccc3c2=O)cc1 | 3.5% |
| C=CCn1c(CCCN2C(=O)c3cccc4cccc(c34)C2=O)nnc1SC/C=C/c1ccccc1 | -6.5% |
| O=C1c2ccccc2C(=O)N1c1cccc(S(=O)(=O)N2CCCCC2)c1 | 9.3% |
| COC(=O)c1sccc1NS(=O)(=O)c1ccc(OC)cc1 | -4.7% |
| COc1ccc(/C=N/NC(=O)c2cc(-c3ccc(Cl)cc3)n[nH]2)cc1 | 10% |
